Drawing on a collection of fitness landscapes (doi:10.1126/science.1257360), this text covers enrichment ratio for 84 variants.

This is one part of the list.

B1: PhoQ; a variant is named by its letters at X, in order, P23837 (parent)
chain: MKKLLRLFFPLSLRVRFLLATAAVVLVLSLAYGMVALIGYSVSFDKTTFRLLRGESNLFYTLAKWENNKLHVELPENIDKQSPTMTLIYDENGQLLWAQRDVPWLMKMIQPDWLKSNGFHEIEADVNDTSLLLSGDHSIQQQLQEVREDDDDAEMTHSVAVNVYPATSRMPKLTIVVVDTIPVELKSSYMVWSWFIYVLSANLLLVIPLLWVAAWWSLRPIEALAKEVRELEEHNRELLNPATTRELTSLVRNLNRLLKSERERYDKYRTTLTDLTHSLKTPLXXLQXXLRSLRSEKMSVSDAEPVMLEQISRISQQIGYYLHRASMRGGTLLSRELHPVAPLLDNLTSALNKVYQRKGVNISLDISPEISFVGEQNDFVEVMGNVLDNACKYCLEFVEISARQTDEHLYIVVEDDGPGIPLSKREVIFDRGQRVDTLRPGQGVGLAVAREITEQYEGKIVAGESMLGGARMEVIFGRQHSAPKDE

In this assay the parent is B1. As to the kind of experiment: enrichment ratio after two sorts for PhoP signalling (ratio (wild type AVST 3.29)); higher = more functional. Conditions: with PhoP (E. coli).
Turning to QRGK, the enrichment ratio was not above 0.25.
Regarding ETTA, the enrichment ratio was not above 0.25.
The figure for KLNA is not above 0.25; for FMEL it is not above 0.25.
The figure for PTTH is 1.43; for NMHL it is not above 0.25.
Turning to PNHE, the enrichment ratio was not above 0.25.
As to RTSH, the enrichment ratio was not above 0.25.
The figure for DDSY is not above 0.25; for SDHL it is not above 0.25; for NLTP it is not above 0.25.
The figure for MGHT is not above 0.25; for NFPQ it is not above 0.25; for TPHS it is not above 0.25.
In the case of MAER, the enrichment ratio is not above 0.25.
In the case of VMPY, the enrichment ratio is not above 0.25.
Next, IPVQ: not above 0.25.
Next, DRLL: not above 0.25.
The figure for GRKG is not above 0.25; for TMCV it is 13.2; for RKQY it is not above 0.25.
Turning to QGNW, the enrichment ratio is not above 0.25.
In the case of YAWY, the enrichment ratio is not above 0.25.
In the case of RNHP, the enrichment ratio is not above 0.25.
Next, FLRP: not above 0.25; AFHC: not above 0.25.
The figure for FYYD is not above 0.25.
The figure for DESL is not above 0.25; for QHWV it is not above 0.25; for KTMG it is not above 0.25.
Take HAGH: the enrichment ratio was not above 0.25.
The figure for YCIK is not above 0.25; for SVVE it is not above 0.25.
With NYKQ, the enrichment ratio was not above 0.25.
QNMG: the enrichment ratio is not above 0.25.
Take RKGF: the enrichment ratio is not above 0.25.
As for IMDP, the enrichment ratio was not above 0.25.
Turning to VQHH, the enrichment ratio is not above 0.25.
With ISMF, the enrichment ratio is not above 0.25.
In the case of YISA, the enrichment ratio was found to be 0.687.
Next, EGCD: not above 0.25; TGYI: 8.06; NMNN: not above 0.25.
Consider SRHG, for which the enrichment ratio is not above 0.25.
Turning to MLFC, the enrichment ratio is not above 0.25.
As for PQNG, the enrichment ratio was not above 0.25.
Turning to YTPR, the enrichment ratio was not above 0.25.
Consider MDHH, for which the enrichment ratio is not above 0.25.
The figure for WCYL is not above 0.25.
Next, YCCY: not above 0.25.
Next, YCIS: 0.352.
In the case of DSSG, the enrichment ratio was not above 0.25.
Next, RLWG: not above 0.25; WQAH: not above 0.25.
In the case of WYDG, the enrichment ratio is not above 0.25.
The figure for EHLY is not above 0.25.
For the variant PSVY, the enrichment ratio is not above 0.25.
Next, GSLY: 7.32; HICE: not above 0.25.
The figure for FDSF is not above 0.25; for EGGF it is not above 0.25.
The figure for QGQM is not above 0.25; for GKMP it is not above 0.25; for FKRA it is not above 0.25.
For RFNV, the enrichment ratio is not above 0.25.
For ETMS, the enrichment ratio was not above 0.25.
Next, YFIV: not above 0.25; LNHL: not above 0.25; FGNH: not above 0.25.
The figure for TKEP is not above 0.25.
Next, VPDT: not above 0.25; APMD: not above 0.25.
Take DLGP: the enrichment ratio is not above 0.25.
As for SLMA, the enrichment ratio is 0.45.
As to GGVK, the enrichment ratio is not above 0.25.
The figure for YGVE is not above 0.25; for HAWH it is not above 0.25.
Next, RFNY: not above 0.25.
Take ALEF: the enrichment ratio was not above 0.25.
Next, HEKF: not above 0.25.
With MHRI, the enrichment ratio was not above 0.25.
Consider QVSY, for which the enrichment ratio was not above 0.25.
Turning to TKDM, the enrichment ratio is not above 0.25.
Next, FYSG: not above 0.25.
